The campaign covered roughly 410,000 compounds. About 6,400 (1.6%) were called active. The shares of active, inactive and inconclusive entries below differ from those in the screen. Calls come from the whole dose curve; as a rule, active = well fitted inhibition curve with a large enough effect; inconclusive = small, poorly fitted or top-dose-only effect; inactive = no such curve, though single readings can be large or run the other way. A potency beside an inconclusive call is a rough fit, not a confirmed value.
What follows are compounds tested against Glucagon-like peptide 1 receptor (Homo sapiens) (UniProt P43220) (assay: qHTS of GLP-1 Receptor Inverse Agonists (Inhibition Mode)). Conditions: HEK293 GLP-1R CRE-luciferase, luminescence, 24 h, GLP-1R form is constitutively active; activity change, negative = inhibition: at 38.3 µM (top of the series) unless noted.
Summary of the method: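 Assay principle: reduced luminescence from a cAMP-responsive reporter in HEK293 cells co-expressing a constitutively active GLP-1R. Conditions: 24 hr compound incubation, 37 deg C, 5% CO2.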
% is set by controls: 0 for no effect and ±100 for the full control effect; potency is the fitted concentration of half-maximal effect; tags give direction and shape of the fitted curve.
Note: nearly all actives have a fitted effect of over 55% in size.

Sequence of UniProt P43220 (P43220 whole entry, looked up): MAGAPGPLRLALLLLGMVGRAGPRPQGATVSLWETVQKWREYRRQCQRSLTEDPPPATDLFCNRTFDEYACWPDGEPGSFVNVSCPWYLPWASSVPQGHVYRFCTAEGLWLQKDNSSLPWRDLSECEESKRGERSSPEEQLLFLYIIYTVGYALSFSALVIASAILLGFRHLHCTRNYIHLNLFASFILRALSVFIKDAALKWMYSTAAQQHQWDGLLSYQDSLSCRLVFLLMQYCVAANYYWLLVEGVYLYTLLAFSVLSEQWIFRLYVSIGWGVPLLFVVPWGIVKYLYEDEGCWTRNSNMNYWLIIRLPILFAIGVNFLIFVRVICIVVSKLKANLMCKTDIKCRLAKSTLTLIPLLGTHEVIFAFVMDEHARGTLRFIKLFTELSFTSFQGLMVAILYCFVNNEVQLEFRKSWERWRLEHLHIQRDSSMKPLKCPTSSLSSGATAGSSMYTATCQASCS

Potency, inconclusive:
O=C(c1csc2c1CCCC2)N1CCN(c2ncccn2)CC1 28.2 µM [inhibitor, single point], O=C(Cc1ccsc1)NCC(c1ccco1)N1CCCCC1 (centres undefined) 22.4 µM [inhibitor, single point], Cc1ccc(-n2cc(CN3CCN(C(=O)c4ncn[nH]4)CC3)c(-c3ccc(F)cc3)n2)cc1 10 µM [inhibitor, single point], c1ccc2c(c1)OCCc1c-2[nH]c2ccccc12 12.6 µM [inhibitor, single point], COc1ccc(Nc2ncnc3c2cnn3-c2ccc(C)cc2C)cc1 11.2 µM [inhibitor, single point], Cc1noc(C)c1S(=O)(=O)Nc1ccc(C(=O)Nc2ccc(OC(F)(F)F)cc2)cc1 10 µM [inhibitor, partial curve, poor fit], COc1cccc(C(=O)Cn2c(=O)n(CC3CCCO3)c(=O)c3ccccc32)c1 (centres undefined) 28.2 µM [inhibitor, single point], COc1cccc(CC(=O)Nc2ccc3nc(N4CCC(C)CC4)cc(C)c3c2)c1 28.2 µM [inhibitor, single point], NNC(=S)Nc1c(F)cc(F)cc1Br 28.2 µM [inhibitor, single point], C/C(=N\Nc1ccccn1)c1ccc(Br)s1 28.2 µM [inhibitor, single point], O=C(CCCN1C(=O)C(c2ccccc2)Oc2cccnc21)NCCc1ccc(Cl)cc1 (centres undefined) 3.98 µM [inhibitor, full curve, poor fit], Cc1ccc(S(=O)(=O)N2[C@@H](c3ccc(C(C)(C)C)cc3)C(C(=O)O)=CC[C@H]2c2ccc(Cl)cc2)cc1 15.8 µM [inhibitor, partial curve, poor fit], CN(CCNC(=O)C1CCC(=O)N(Cc2ccc(Cl)cc2)C1)CCc1ccccc1 (centres undefined) 8.91 µM [inhibitor, partial curve], CCN1CCC(NCCc2ccc(F)cc2)CC1 5.62 µM [inhibitor, partial curve]

Activity change, negative = inhibition, inactive:
Cc1ccc(-c2csc(NC(=S)NC(=O)c3cccs3)n2)cc1 14.1%, Cc1nn(C(=O)c2ccccc2F)c(C)c1S(=O)(=O)N1CCOCC1 7.67%, CCc1cc2c(=O)[nH]c(Cc3ccccc3)nc2s1 11.2%, CCC(=O)Nc1cccc(-c2nnc(SCC(=O)c3ccccc3)n2C)c1 11.9%, Cc1ccc(NCc2ccc(O)c3ncccc23)cc1 -17.1%
